Legend:
[1] = biological target: epidermal growth factor receptor (EGFR) (human) (UniProt P00533); assay: flow cytometry on cells carrying the target, DVD-Ig at 2 ug/mL, PE goat anti-human IgG Fc detection
[2] = biological target: epidermal growth factor receptor (EGFR) (human) (UniProt P00533); assay: flow cytometry on cells carrying the target; cell-bound DVD-Ig detected through fluorescent methotrexate held by its C-terminal MTX domain, so the signal needs both EGFR and MTX binding

B1: DVD1211 (bispecific antibody, human IgG1, kappa)
heavy: QVQLQESGPGLVKPSQTLSLTCTVSGYSISSDFAWNWIRQPPGKGLEWMGYISYSGNTRYQPSLKSRITISRDTSKNQFFLKLNSVTAADTATYYCVTAGRGFPYWGQGTLVTVSSASTKGPDVQLQESGPGLVKPSQSLSLTCTVTGFSITSPYAWNWIRQFPGNTLEWMGYISYRGSTTHHPSLKSRISITRDTSKNQFFLQLNSVTTEDTATYFCSSYGNYGAYSGQGTLVTVSA[human IgG1 constant region not shown]
light: DIQMTQSPSSMSVSVGDRVTITCHSSQDINSNIGWLQQKPGKSFKGLIYHGTNLDDGVPSRFSGSGSGTDYTLTISSLQPEDFATYYCVQYAQFPWTFGGGTKLEIKRTVAAPDVLLTQIPLSLPVSLGDQASISCRSSQSIVHSNGNTYLEWYLQKPGQSPKLLIYKVSTRFSGVPDRFSGSGSGTDFTLKISRVEAEDLGVYYCFQGSHVPLTFGAGTQLELKRTVAAPSVFIFPPSDEQLKSGTASVVCLLNNFYPREAKVQWKVDNALQSGNSQESVTEQDSKDSTYSLSSTLTLSKADYEKHKVYACEVTHQGLSSPVTKSFNRGEC
- FACS Geometric Mean N-terminal [1]: 739
- FACS Geometric Mean (methotrexate localization) [2]: 12.2

Source: US20110091372A1
